Data: the supplement of paper PMC4967469
By IC50 is meant the dose at which the fit gives 50% viability; fits outside the tested doses are given as limits. The AUC spans the tested range (256-fold, ending at the top dose) of the same fit: 1 means no effect, lower means more sensitive. Any top dose called inferred is not printed in the source and was worked back from the curve model.

compound: CCn1cc(-c2ccnc3[nH]c(-c4cccc(CN(C)C)c4)cc23)c(-c2ccc(NC(=O)N(C)C)cc2)n1 [GSK1070916]; experiment: Viability of human cancer cell lines after 72 h of drug (GDSC screen); conditions: top dose inferred
Experimental: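 Human cancer cell lines in 384-well plates, medium with 10% serum, drug for 72 h over a 256-fold dose range (nine 2-fold or five 4-fold steps up to the top dose). Adherent lines were fixed and stained with the nucleic acid dye Syto60, suspension lines read with resazurin; signal relative to control wells, capped at 0 and 100%. One two-parameter sigmoid per drug and line, fitted in a mixed model over all curves with the slope shared within a line.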

Row | Cell Line | AUC | IC50 [nM]
1 | LAMA-84 (chronic myeloid leukaemia, suspension, top dose 2.56 µM) | 0.849 | 1970
2 | LAN-6 (neuroblastoma, adherent, top dose 2.56 µM) | 0.898 | > 2560
3 | LB373-MEL-D (melanoma, adherent, top dose 2.56 µM) | 0.99 | > 2560
4 | LB647-SCLC (small cell lung carcinoma, semi-adherent, top dose 2.56 µM) | 0.614 | 344
5 | LB771-HNC (head and neck, adherent, top dose 2.56 µM) | 0.963 | > 2560
6 | LB831-BLC (bladder, adherent, top dose 2.56 µM) | 0.95 | > 2560
7 | LB996-RCC (kidney, adherent, top dose 2.56 µM) | 0.983 | > 2560
8 | LB1047-RCC (kidney, adherent, top dose 2.56 µM) | 0.978 | > 2560
9 | LB2241-RCC (kidney, adherent, top dose 2.56 µM) | 0.984 | > 2560
10 | LB2518-MEL (melanoma, adherent, top dose 2.56 µM) | 0.975 | > 2560
11 | LC4-1 (lymphoblastic leukaemia, suspension, top dose 2.56 µM) | 0.615 | 343
12 | LC-1-sq (lung squamous cell carcinoma, adherent, top dose 2.56 µM) | 0.963 | > 2560
13 | LCLC-103H (large cell lung carcinoma, adherent, top dose 2.56 µM) | 0.937 | > 2560
14 | LN-18 (glioma, adherent, top dose 2.56 µM) | 0.988 | > 2560
15 | LN-229 (glioma, adherent, top dose 2.56 µM) | 0.983 | > 2560
16 | LN-405 (glioma, adherent, top dose 2.56 µM) | 0.978 | > 2560
17 | LNCaP-Clone-FGC (prostate, adherent, top dose 2.56 µM) | 0.932 | > 2560
18 | LNZTA3WT4 (glioma, adherent, top dose 2.56 µM) | 0.982 | > 2560
19 | LOU-NH91 (lung squamous cell carcinoma, adherent, top dose 2.56 µM) | 0.978 | > 2560
20 | LOUCY (T-cell lymphoblastic leukaemia, suspension, top dose 2.56 µM) | 0.018 | < 10

Row | Cell Line | AUC | IC50 [nM]
21 | LOXIMVI (melanoma, semi-adherent, top dose 2.56 µM) | 0.941 | > 2560
22 | LP-1 (myeloma, suspension, top dose 2.56 µM) | 0.932 | > 2560
23 | LS-123 (large intestine, adherent, top dose 2.56 µM) | 0.899 | > 2560
24 | LS-180 (large intestine, adherent, top dose 2.56 µM) | 0.975 | > 2560
25 | LS-411N (large intestine, adherent, top dose 2.56 µM) | 0.73 | 849
26 | LS-513 (large intestine, adherent, top dose 2.56 µM) | 0.83 | 1690
27 | LS-1034 (large intestine, adherent, top dose 2.56 µM) | 0.849 | 2230
28 | LU-65 (large cell lung carcinoma, suspension, top dose 2.56 µM) | 0.94 | > 2560
29 | LU-99A (large cell lung carcinoma, adherent, top dose 2.56 µM) | 0.962 | > 2560
30 | LU-134-A (small cell lung carcinoma, suspension, top dose 2.56 µM) | 0.448 | 114
31 | LU-135 (small cell lung carcinoma, suspension, top dose 2.56 µM) | 0.94 | > 2560
32 | LU-139 (small cell lung carcinoma, suspension, top dose 2.56 µM) | 0.864 | > 2560
33 | LU-165 (small cell lung carcinoma, suspension, top dose 2.56 µM) | 0.961 | > 2560
34 | LXF-289 (lung adenocarcinoma, adherent, top dose 2.56 µM) | 0.82 | 1440
35 | LoVo (large intestine, adherent, top dose 2.56 µM) | 0.987 | > 2560
36 | M14 (melanoma, adherent, top dose 2.56 µM) | 0.987 | > 2560
37 | M059J (glioma, adherent, top dose 2.56 µM) | 0.869 | > 2560
38 | MC116 (B-cell lymphoma, suspension, top dose 2.56 µM) | 0.999 | > 2560
39 | MC-CAR (haematopoietic neoplasm, suspension, top dose 2.56 µM) | 0.844 | 1550
40 | MC-IXC (neuroblastoma, adherent, top dose 2.56 µM) | 0.918 | 1990

Row | Cell Line | AUC | IC50 [nM]
41 | MCF7 (breast, adherent, top dose 2.56 µM) | 0.986 | > 2560
42 | MDA-MB-157 (breast, adherent, top dose 2.56 µM) | 0.971 | > 2560
43 | MDA-MB-175-VII (breast, adherent, top dose 2.56 µM) | 0.987 | > 2560
44 | MDA-MB-231 (breast, adherent, top dose 2.56 µM) | 0.972 | > 2560
45 | MDA-MB-330 (breast, adherent, top dose 2.56 µM) | 0.965 | > 2560
46 | MDA-MB-361 (breast, adherent, top dose 2.56 µM) | 0.988 | > 2560
47 | MDA-MB-415 (breast, adherent, top dose 2.56 µM) | 0.983 | > 2560
48 | MDA-MB-436 (breast, adherent, top dose 2.56 µM) | 0.982 | > 2560
49 | MDA-MB-453 (breast, adherent, top dose 2.56 µM) | 0.973 | > 2560
50 | MDST8 (large intestine, adherent, top dose 2.56 µM) | 0.967 | > 2560
51 | ME-1 (acute myeloid leukaemia, suspension, top dose 2.56 µM) | 0.904 | > 2560
52 | ME-180 (cervix, adherent, top dose 2.56 µM) | 0.876 | > 2560
53 | MEG-01 (chronic myeloid leukaemia, suspension, top dose 2.56 µM) | 0.835 | 1550
54 | MEL-JUSO (melanoma, adherent, top dose 2.56 µM) | 0.879 | > 2560
55 | MES-SA (uterus, adherent, top dose 2.56 µM) | 0.952 | > 2560
56 | MFE-280 (endometrium, adherent, top dose 2.56 µM) | 0.879 | > 2560
57 | MFE-296 (endometrium, adherent, top dose 2.56 µM) | 0.969 | > 2560
58 | MFE-319 (endometrium, adherent, top dose 2.56 µM) | 0.988 | > 2560
